# Results from the supplement of paper PMC12632987.
# Whole data set: some 4,500 sequences, median “median log2 fold change of GCK-ALFA target abundance (FLAG IP / Myc IP barcode read proportion)” near 0.078, cut for the lowest 2% near -0.6. The list shows a part of the results.
# B1: GBRAP_9_7119 (protein)
# chain: LEELIEKLKEVVEDAIEDMSLAIPRISEEMKEKFLKRVRELAEELKKDKTKTPEEIKERFKELLREILEEVKKIVDEEEAKIAEAIRLTAEVEIDEIVEE
# B2: GBRAP_166_4934 (protein)
# chain: NLEEIIKETKEKVVELAKEAAELDREGVIEKAIEIRDLLEEAKKAGASKEELKEILLEAIKTLADNPELARELLRLIEAATDMDEELIDVIDEVRAEFEA
# B3: GBRAP_53_6416 (protein)
# chain: AAEKIEKLKEEIRALAKAAAAADAATRAKLTKEIAAKLAELKAAGMPDEELTALAKEVAKLLKEAGAPASDLVTLANALAALGLEEGTAEVAELAVEELE
# B4: GBRAP_128_3590 (protein)
# chain: SVEAVRAETRALLEAMKTADEAERRALAEELARRFLTLTPEEREAMAEEIEERLPELSEEDLEILADAFRAARPLADPETANLLADIEVAALNEAEEKSE
# B5: GBRAP_128_3531 (protein)
# chain: SVEEAKAYAKEVVEKIKASDVETAAKITAEFLEKLKTWTDEEVEAAVEVLEERAPELTAEKLETVADVIRKNRGKFTPEKQNHLAGLEVELLNEAEEKEE
# B6: GBRAP_52_6172 (protein)
# chain: AAAEAAARAAALLAAVRAGDEARVRALIREIAETMSDAEIAATLDAIAAAVPALSPEDQERVVEAALELEDVAEAAGHDPEILDVAVARVAGAAYDALQA
# B7: GBRAP_80_6845 (protein)
# chain: AEARLAAALAELKALLPEVAADIEEAVELAKELGVPDEDIADLLEALAELAKLDPEKAAELIKELLEDLKELKKEGDSEGALAVVRGYAGLALMEAEELE
# B8: GBRAP_125_3035 (protein)
# chain: SMEQDIEDLGLLARALGLSEEDVEELKELARRHGVKGTLIALLLAEGWEEIAELAEKLSEEEVIEVLKELAEYLEKHPDLTPEEVKEKLKELLEKAVEKS
# B9: GBRAP_52_6346 (protein)
# chain: MEEKLKKLAEELVELVKEGKLEEARKKAKEIVETLSEEEIEKLAEELAKLAKTADKETAEAILEAAEILADEMIEAGYDEYKASYLLALVGKAVYENLQK
# B10: GBRAP_9_7148 (protein)
# chain: MEELIEKMEEIFRDMVALVREIVPPEVHPVVDAMEEEARERFEEMREDEEITEEEAVEEAKELVRDFRDAVAARVDPETARMVDAVALTAELEIEELREE
# B11: GBRAP_139_3700 (protein)
# chain: SELEKKIEEARELTRKMEENPEESIEKIVELIKNSSLEEAEKIVEAIAEELSKLPLDKAEEYADKILEKVEEEIEDEDKVDLVEAILNGALARKAYEEEL
# B12: GBRAP_184_5174 (protein)
# chain: KVLEFTVRAENVEEMRAKMAEIAAAVAGTNADLYIIVETPEVTVEMARALMDGVAAIKAAGYATRITVHVTGDVDEEVADVLVERARAAGVQVVLALKEE
# B13: GBRAP_35_5609 (protein)
# chain: DSMKETVEMLVATIEDLTLAVPDMPVEDLVAITTQLVDSAEKVIDELTDDKEGAEKLLKALEKLLKALEKYHGDDPLAQEAIKRVKEAIEKAKKRIEEIK
# B14: GBRAP_160_4399 (protein)
# chain: SEEYEKLKKEVKEIFEEAIKLIEGETPEQRKTIIRVSFGDVILEAIENEGISDEEEEEIDKILDEYEEKALKAVEEGLEAVIEVLKEAEEKVLKKIEELE
# B15: GBRAP_11_2625 (protein)
# chain: EKEIKKKMAELAKKLAELLEKLLKEGVDNEELIKEAEKTLKELKELVEKYGDEAEKKQVEILEEEFEKSLKDKENAEKYFEEALAAARVLAGDYLLEIEE
# B16: GBRAP_39_5670 (protein)
# chain: EEEEELELEVSYLEAVAAKYLYETGISLEEAYKEAKKILKEYAKKHPELKELVEELIKLADEKGEEAKLVAIGVAKLIEEGAPLEEIKEKIEKAVEYFKS
# B17: GBRAP_160_4169 (protein)
# chain: SEKVEKAKEEINEIFDEAKAMIVGQTAAERAAIVAVAFGEIILLLEEMGLLTDELDKTIRELEDELVSTILANPDLTDAEITALLNEAKEKLFEALEKSS
# B18: GBRAP_11_2807 (protein)
# chain: KKEKLEEALKLAEEAAKAVEKLLKEGVDNEELLKKIEKLLEELEKLAKEYLDEGSQKLVEIAKELLEKAKADPENAKAYLEQLLATLRVLAGNIQLEIEE
# B19: GBRAP_159_3961 (protein)
# chain: MEEKLKALAEELRKLGASEEIIETFVEALELELEGEPKESVAAYLLHAYSTLGASVEQILKALSFLSPETAKYVAEVLADYAKEQGKEEDAKKFEEFLEK
# B20: GBRAP_128_3179 (protein)
# chain: SLEEVKKRTREAMERIKNSSPEEARRIAEELFEWLKTLSLEEAEAAVEEILKLLPELTPEHLEILADVAREMRPLYTPEKQELVAELEVEALNRLEELEE
# B21: GBRAP_117_2598 (protein)
# chain: SMTEEEAKKLVKEAVELIKEAIKKQKELSPEEAKKLKEETLKKLTEIVEKLLELVDYDTLEELFAEALKPLSPEEQVQAYILWEEALAEAEERRKEEEEA
# B22: GBRAP_52_6263 (protein)
# chain: MREELRAAAEEIFNLVKAGRLEEARALARELVESLDEEELELFIEEFAELAKTIKKEEIPYMEKTTEIVAEEMEEAGVPEELVSLFEARSYGALYEREQK
# B23: GBRAP_78_6728 (protein)
# chain: ELEELIEKAIEHLNEAAKLASKLPLEEGNEILDLLVDAITDLEEAEEEGGDLELLEEALKHVEKALELAKKLNLPEAKELAEELEKAKELLKKAIELAKK
# B24: GBRAP_196_5417 (protein)
# chain: SALAEIEKLEAESAAETKGKKLGDWTIVMAATPENLEKVAKETAEIAKDLGNPTIELVVPGTLEEALKALKLLREELKKAGVVSEIRVASEAIEAAKAAA
# B25: GBRAP_160_4165 (protein)
# chain: MEKLEEAKKEIKEIFEEAAEMMKGQSAEERANIVRVAFGEIRLLLEEKGLLTDEVDEALDKIEEEVVTTILENPDLTDEELEELLKEALEKLFEALEKSY
# B26: GBRAP_128_3546 (protein)
# chain: SLEEAKALAEKAVEEIKASDVETARKITKELLETLKTKSLEEVEAAVETLKANLPTLTAEKLDAVADAIEEERGKFSPEVQELLADLEVEALNLAEELEE
# B27: GBRAP_39_5714 (protein)
# chain: DEEEELELLASYLEAEFAKEQYERGISDEEAIAEGMAFMRELAEANPEYKERIEALIKRAEELGPEAKRVLAAAAAGIRAGMPLEEALAVAEYEFEKLEA
# B28: GBRAP_160_4294 (protein)
# chain: SETLEKAKKLIDETFEETYELMEGESAENRAVIVDVELGSLIYELSELPEVSDEALDKIDEIRDELVAHILANPDLTPEELKALLEEAREKIKEILEKDF
# B29: GBRAP_131_3607 (protein)
# chain: IKGKLVTIEDAASVEEALARVDEAVEEALEEGYDVIVINLQNVSQEIYDAAEEKADELEERLKKEKGVTLVVLPPGTTLEEAQKILEALVLDKEEEKEEE
# Target: GABARAP, O95166
# Sequence (O95166 whole entry, the tested form may be a part): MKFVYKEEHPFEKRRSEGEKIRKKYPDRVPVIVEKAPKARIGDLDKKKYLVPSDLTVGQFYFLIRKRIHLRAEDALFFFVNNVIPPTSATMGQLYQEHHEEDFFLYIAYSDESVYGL
# Test: median log2 fold change of GCK-ALFA target abundance (FLAG IP / Myc IP barcode read proportion) (log2 ratio); each designed protein is fused to an ALFA-tag nanobody in HEK293 cells to bring the named protein to FLAG-tagged glucokinase (GCK); Myc marks an untargeted standard; higher = target protein stabilised (more abundant)
# Settings: target protein: 3xFLAG-MCP-GCK-ALFA reporter; HEK293 landing pad (RPLP)
# Method in brief: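 The readout is target abundance, the per-binder median log2 ratio of FLAG to Myc barcode read proportions. It came from HEK293 landing-pad cells carrying a recombined ALFA-nanobody-fused binder library, induced with 2 μg mL^−1 doxycycline and transfected with a plasmid for a FLAG-tagged target and a Myc-tagged standard. After 48 h, lysates were immunoprecipitated with anti-FLAG and anti-Myc, and circular RNA barcodes were reverse transcribed, amplified and sequenced. Each barcode needed a proportion of at least 10^−7 in both replicates and each binder at least 3 barcodes per replicate, a pseudocount of 10^−6 was added, and the replicates were pooled.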
row,Binder,median log2 fold change
1,B1,0.152
2,B2,0.354
3,B3,0.279
4,B4,0.0581
5,B5,-0.0213
6,B6,0.00144
7,B7,-0.057
8,B8,-0.193
9,B9,-0.0218
10,B10,-0.342
11,B11,0.139
12,B12,-0.0716
13,B13,0.354
14,B14,-0.425
15,B15,0.332
16,B16,0.137
17,B17,-0.285
18,B18,0.383
19,B19,0.177
20,B20,0.209
21,B21,0.263
22,B22,-0.308
23,B23,0.131
24,B24,0.256
25,B25,0.143
26,B26,0.281
27,B27,0.383
28,B28,-0.179
29,B29,0.174
